Measured values published in PubChem BioAssay (Tox21).
Values joined by “and” are separate entries in the source; they are usually repeats but may differ in a detail not shown here. Equal entries are not always repeated. The shares of active, inactive and inconclusive entries below differ from those in the screen. For some assays here: Potencies beside an inconclusive call are fits to weak or partial responses and may not hold up. Some structures have more than one record in an assay (separate samples or runs), and their calls can disagree. Active and inactive are the calls of the source. Unless noted, the call rests on the fitted dose curve; in most records, active means well fitted curve in the direction sought with a large enough effect in the repeat runs; inconclusive means weak or mixed curves; inactive means no such curve, though single readings can be large; an effect the other way counts as inactive or inconclusive.

Tests used:
[1] = qHTS assay for identifying genotoxic compounds that show differential cytotoxicity against isogenic chicken DT40 cell lines with known DNA damage response pathways - wild type cell line (AID 743012); conditions: DT40 wild type chicken cells viability, CellTiter-Glo, 40 h; activity change, negative = cytotoxicity: at 68.4 µM (top of the series) unless noted; further: nearly all actives have a fitted effect of over 60% in size; further: potency means the concentration at half of the fitted maximal effect; on activity change, negative = cytotoxicity: on the % scale 0 is the no-effect control and ±100 the full control effect
Method in brief: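 Endpoint: CellTiter-Glo luminescence, 30 min RT. Cells: wild type DT40, 300/well. Exposure: compounds in DMSO, 40 h, 37 C/5% CO2, after ~0.5 h pre-incubation.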

[2] = qHTS assay to identify small molecule antagonists of the estrogen receptor alpha (ER-alpha) signaling pathway - cell viability counter screen (AID 743074; calls by dose curve;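 further: HEK293 cells carrying ER-alpha-UAS-bla reporter stimulated with 17beta-estradiol; nearly all actives have a fitted effect of over 45% in size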; further: potency means the concentration at half of the fitted maximal effect)
[3] = target: Peroxisome proliferator-activated receptor gamma (Homo sapiens) (UniProt P37231); test: qHTS assay to identify small molecule antagonists of the peroxisome proliferator-activated receptor gamma (PPARg) signaling pathway (AID 743191; calls by dose curve; further: nearly all actives have a fitted effect of over 30% in size; further: potency means the concentration at half of the fitted maximal effect; on ratio activity, negative = inhibition: on the % scale 0 is the no-effect control and ±100 the full control effect); conditions: HEK293H PPARg-UAS-bla, beta-lactamase ratio, antagonist, 17 h
UniProt P37231, sequence (P37231 whole entry, looked up): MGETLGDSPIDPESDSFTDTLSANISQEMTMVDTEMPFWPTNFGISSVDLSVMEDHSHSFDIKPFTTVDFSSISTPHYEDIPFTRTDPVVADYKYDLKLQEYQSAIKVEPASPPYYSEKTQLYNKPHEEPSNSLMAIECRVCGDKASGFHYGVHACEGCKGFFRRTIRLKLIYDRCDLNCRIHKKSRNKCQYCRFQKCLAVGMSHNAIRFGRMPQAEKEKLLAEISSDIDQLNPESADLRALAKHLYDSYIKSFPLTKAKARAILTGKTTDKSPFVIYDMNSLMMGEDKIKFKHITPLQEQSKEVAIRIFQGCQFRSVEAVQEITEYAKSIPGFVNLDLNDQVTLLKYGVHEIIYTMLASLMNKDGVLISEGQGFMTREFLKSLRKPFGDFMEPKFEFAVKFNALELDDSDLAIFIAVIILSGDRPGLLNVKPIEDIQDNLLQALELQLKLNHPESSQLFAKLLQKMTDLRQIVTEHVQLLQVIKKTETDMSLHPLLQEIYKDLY
Method in brief: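 GeneBLAzer PPARg UAS-bla HEK293H cells carrying a UAS-driven beta-lactamase reporter were plated at 3000 cells/well, preincubated 5 h at 37C, then given compound for 17 h at 37C; LiveBLAzer B/G FRET substrate was read after 1 h at room temperature.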

[4] = qHTS assay for small molecule agonists of the antioxidant response element (ARE) signaling pathway (AID 743202; active means well fitted activation curve with a large enough effect in the signal ratio in the repeat runs, not every such curve was filed as active; inconclusive means weak or mixed curves, or effect the other way; inactive means no such curve, though single readings can be large or run the other way; the % refers to the signal ratio; further: potency means the concentration at half of the fitted maximal effect; on activation: on the % scale 0 is the no-effect control and ±100 the full control effect); conditions: HepG2 ARE-bla reporter, beta-lactamase FRET, 16 h
Method in brief: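 Following a 16 h, 37 C exposure of reporter HepG2 cells (ARE-driven beta-lactamase, 2,000 cells/well) to compounds, FRET substrate was applied for 2 h at room temperature and fluorescence intensity recorded.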

[5] = target: Vitamin D3 receptor (Homo sapiens) (UniProt P11473); test: qHTS assay to identify small molecule antagonists of the vitamin D receptor (VDR) signaling pathway (AID 743223; active means well fitted inhibition curve with a large enough effect in the signal ratio in the repeat runs, not every such curve was filed as active; inconclusive means weak or mixed curves, or effect the other way; inactive means no such curve, though single readings can be large or run the other way; the % refers to the signal ratio; further: potency means the concentration at half of the fitted maximal effect); conditions: VDR-UAS-bla HEK293T, beta-lactamase FRET ratio, 16 h; activity change, negative = inhibition: at 61 µM (top of the series) unless noted
UniProt P11473, sequence (P11473 whole entry, looked up): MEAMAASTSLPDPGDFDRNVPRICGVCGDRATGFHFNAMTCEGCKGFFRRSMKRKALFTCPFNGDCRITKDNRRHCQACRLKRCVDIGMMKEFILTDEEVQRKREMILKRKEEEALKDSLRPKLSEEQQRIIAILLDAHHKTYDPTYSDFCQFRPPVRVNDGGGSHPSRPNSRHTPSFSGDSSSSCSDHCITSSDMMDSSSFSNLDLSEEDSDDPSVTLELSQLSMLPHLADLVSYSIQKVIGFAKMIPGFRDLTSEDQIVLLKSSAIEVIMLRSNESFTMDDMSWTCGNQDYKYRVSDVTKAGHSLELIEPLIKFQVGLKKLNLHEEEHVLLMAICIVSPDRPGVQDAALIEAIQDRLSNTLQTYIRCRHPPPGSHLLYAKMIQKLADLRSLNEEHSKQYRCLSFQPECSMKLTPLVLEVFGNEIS
Method in brief: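 Beta-lactamase reporter read-out: FRET substrate fluorescence after 2 h at room temperature, following 16 h exposure of VDR-bla cells to test compound plus 3 nM (final) 1alpha,25-dihydroxyvitamin D3 agonist at 37C.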

[6] = target: Retinoic acid receptor RXR-alpha (Homo sapiens) (UniProt P19793); test: qHTS assay to identify small molecule agonists of the RXR signaling pathway (AID 1159527; calls by dose curve; further: nearly all actives have a fitted effect of over 35% in size; further: potency means the concentration at half of the fitted maximal effect); conditions: HEK293T RXRa-UAS-bla, beta-lactamase ratio, 16 h
UniProt P19793, sequence (P19793 whole entry, looked up): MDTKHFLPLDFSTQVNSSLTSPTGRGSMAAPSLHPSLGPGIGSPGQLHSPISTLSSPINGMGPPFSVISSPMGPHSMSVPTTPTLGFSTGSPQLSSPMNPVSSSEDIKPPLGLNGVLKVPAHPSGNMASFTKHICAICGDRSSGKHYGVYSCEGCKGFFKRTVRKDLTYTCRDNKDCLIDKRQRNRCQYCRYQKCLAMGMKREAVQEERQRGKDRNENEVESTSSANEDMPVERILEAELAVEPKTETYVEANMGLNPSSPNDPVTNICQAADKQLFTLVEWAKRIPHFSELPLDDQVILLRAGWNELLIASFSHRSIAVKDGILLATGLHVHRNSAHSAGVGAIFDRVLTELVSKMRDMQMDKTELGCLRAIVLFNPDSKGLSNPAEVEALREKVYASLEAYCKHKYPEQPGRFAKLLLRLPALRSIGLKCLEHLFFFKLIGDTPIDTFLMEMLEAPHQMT
Method in brief: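 Agonist mode; 9-cis retinoic acid positive control. HEK 293T UAS-bla reporter cells, 2% charcoal-stripped FBS, 16 hr compound exposure at 37 C/5% CO2. LiveBLAzer B/G FRET substrate 2 hr RT; ex 405, em 460/530 nm.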

[7] = target: Progesterone receptor (Homo sapiens) (UniProt P06401); test: qHTS assay to identify small molecule antagonists of the progesterone receptor (PR) signaling pathway (AID 1346795; active means well fitted inhibition curve with a large enough effect in the signal ratio in the repeat runs, not every such curve was filed as active; inconclusive means weak or mixed curves; the % refers to the signal ratio; further: potency means the concentration at half of the fitted maximal effect); conditions: PR-UAS-bla HEK293T, beta-lactamase FRET ratio, 16 h; activity change, negative = inhibition: at 92.4 µM (top of the series) unless noted
UniProt P06401, sequence (P06401 whole entry, looked up): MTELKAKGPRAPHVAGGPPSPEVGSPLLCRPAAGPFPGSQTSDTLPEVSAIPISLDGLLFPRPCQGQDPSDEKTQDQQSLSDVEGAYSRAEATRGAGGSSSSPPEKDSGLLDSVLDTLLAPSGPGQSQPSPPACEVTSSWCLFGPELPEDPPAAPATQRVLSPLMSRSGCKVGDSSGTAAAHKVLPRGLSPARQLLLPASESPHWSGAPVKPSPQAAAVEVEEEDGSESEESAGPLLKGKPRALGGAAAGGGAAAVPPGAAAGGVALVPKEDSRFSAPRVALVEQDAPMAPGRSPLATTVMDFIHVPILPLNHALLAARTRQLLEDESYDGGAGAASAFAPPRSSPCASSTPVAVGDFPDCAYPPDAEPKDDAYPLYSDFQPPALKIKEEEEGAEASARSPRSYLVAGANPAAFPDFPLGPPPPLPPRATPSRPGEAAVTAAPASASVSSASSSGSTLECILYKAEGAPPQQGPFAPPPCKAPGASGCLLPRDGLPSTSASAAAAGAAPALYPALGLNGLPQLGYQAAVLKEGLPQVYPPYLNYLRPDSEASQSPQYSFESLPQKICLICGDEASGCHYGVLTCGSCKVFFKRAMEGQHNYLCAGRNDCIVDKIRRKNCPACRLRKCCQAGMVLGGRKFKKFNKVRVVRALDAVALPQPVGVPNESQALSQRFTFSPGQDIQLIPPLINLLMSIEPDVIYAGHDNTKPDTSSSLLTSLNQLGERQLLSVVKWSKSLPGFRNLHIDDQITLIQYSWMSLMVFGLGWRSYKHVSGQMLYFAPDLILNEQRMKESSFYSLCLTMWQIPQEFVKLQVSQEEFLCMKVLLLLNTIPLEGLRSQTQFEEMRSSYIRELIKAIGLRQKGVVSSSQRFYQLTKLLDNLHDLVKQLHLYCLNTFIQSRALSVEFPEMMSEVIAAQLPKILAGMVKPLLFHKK
Method in brief: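 Beta-lactamase reporter, HEK293T PR-UAS-bla line; 2% charcoal-stripped FBS; 6 hr pre-incubation, 37C/5% CO2. Compound + R5020 1 nM final, 16 hr. LiveBLAzer B/G FRET substrate, 2 hr RT; fluorescence intensity read.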

[8] = qHTS assay to identify small molecule agonists of the progesterone receptor (PR) signaling pathway - cell viability counter screen (AID 1346799; calls by dose curve; further: nearly all actives have a fitted effect of over 45% in size; further: potency means the concentration at half of the fitted maximal effect)
Method in brief: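 HEK293T PR-UAS-bla, 3,000 cells/well, 2% charcoal-stripped FBS; 6 h settle, compound 16 h at 37C/5% CO2; LiveBLAzer 2 h RT, then CellTiter-Glo 30 min RT, luminescence read.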

[9] = target: Cytochrome P450 2C19 (Homo sapiens) (UniProt P33261); test: Cytochrome P450 Family 2 Subfamily C Member 19 (CYP2C19) small molecule antagonists: luciferase reporter qHTS assay (AID 1671197); further: nearly all actives have a fitted effect of over 65% in size; further: potency means the concentration at half of the fitted maximal effect
UniProt P33261, sequence (P33261 whole entry, looked up): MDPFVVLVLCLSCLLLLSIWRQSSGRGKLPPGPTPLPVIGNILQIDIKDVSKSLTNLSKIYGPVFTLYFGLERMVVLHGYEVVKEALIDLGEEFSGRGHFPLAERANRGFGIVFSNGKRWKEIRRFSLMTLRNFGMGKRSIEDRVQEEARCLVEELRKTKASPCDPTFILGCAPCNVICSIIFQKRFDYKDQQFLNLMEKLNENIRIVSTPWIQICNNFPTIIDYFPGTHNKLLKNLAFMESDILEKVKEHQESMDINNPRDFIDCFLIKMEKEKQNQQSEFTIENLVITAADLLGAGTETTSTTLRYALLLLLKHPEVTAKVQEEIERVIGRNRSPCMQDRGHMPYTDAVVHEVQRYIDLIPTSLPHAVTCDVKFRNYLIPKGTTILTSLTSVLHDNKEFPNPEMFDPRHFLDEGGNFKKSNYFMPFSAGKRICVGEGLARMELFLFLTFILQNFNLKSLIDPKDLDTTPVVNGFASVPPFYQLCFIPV
Method in brief: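 Inhibition of CYP2C19 was scored from loss of luminescence in a P450-Glo proluciferin substrate assay, NADPH-started and run 1 h at 37C, with ketoconazole as positive control.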

[10] = qHTS assay for small molecule disruptors of the mitochondrial membrane potential (AID 720635); conditions: HepG2 mitochondrial membrane potential, Mito-MPS dye ratio; ratio activity, negative = MMP loss: at 83.2 µM (top of the series) unless noted; further: potency means the concentration at half of the fitted maximal effect
Method in brief: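 HepG2 cells (2,000/well) attached overnight at 37C, then took compound for 1 hr at 37C, 5% CO2. Mito-MPS dye was added for 30 min; fluorescence was read at 490/535 nm (monomers) and 540/590 nm (aggregates).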

[11] = qHTS assay to identify small molecule agonists of the farnesoid-X-receptor (FXR) signaling pathway - cell viability counter screen (AID 743218); conditions: FXR-bla HEK293T viability, CellTiter-Glo luminescence, 16 h; viability change, negative = cytotoxic: at 62.6 µM (top of the series); further: nearly all actives have a fitted effect of over 45% in size; further: potency means the concentration at half of the fitted maximal effect
Method in brief: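 Same-well cytotoxicity check on FXR-UAS-bla HEK 293T cells: 5 h attachment, 16 h compound at 37 C, CellTiter-Glo luminescence read at room temperature after 30 min.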

[12] = qHTS assay to identify small molecule antagonists of the sonic hedgehog signaling (Shh) pathway (AID 1259369; calls by dose curve; further: nearly all actives have a fitted effect of over 45% in size; further: potency means the concentration at half of the fitted maximal effect)
Method in brief: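 NIH/3T3 stable Gli1-Luc clone, 2,000 cells/well, 4hr settle; cpd + conditioned medium 24hr; Luc reagent 30min RT; luminescence.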

[13] = target: Cytochrome P450 1A2 (Homo sapiens) (UniProt P05177); test: Cytochrome P450 Family 1 Subfamily A Member 2 (CYP1A2) small molecule antagonists: luciferase reporter qHTS assay (AID 1671199); further: potency means the concentration at half of the fitted maximal effect; nearly all actives have a fitted effect of over 50% in size
UniProt P05177, sequence (P05177 whole entry, looked up): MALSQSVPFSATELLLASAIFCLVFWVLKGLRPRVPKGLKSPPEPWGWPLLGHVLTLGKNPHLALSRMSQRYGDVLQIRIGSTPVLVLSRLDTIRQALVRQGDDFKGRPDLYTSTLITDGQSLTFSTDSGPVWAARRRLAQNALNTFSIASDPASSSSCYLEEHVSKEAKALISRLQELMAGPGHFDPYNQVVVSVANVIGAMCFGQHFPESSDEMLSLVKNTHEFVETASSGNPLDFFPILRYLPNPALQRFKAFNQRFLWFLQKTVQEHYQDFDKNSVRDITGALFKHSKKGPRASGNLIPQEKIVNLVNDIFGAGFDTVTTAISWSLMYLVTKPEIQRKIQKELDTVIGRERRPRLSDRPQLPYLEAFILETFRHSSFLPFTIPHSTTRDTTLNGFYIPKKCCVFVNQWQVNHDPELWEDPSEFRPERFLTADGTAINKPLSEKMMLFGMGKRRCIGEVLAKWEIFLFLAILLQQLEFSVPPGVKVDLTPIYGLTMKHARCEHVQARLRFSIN
Method in brief: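 Read-out is luminescence from luciferin detection reagent (20 min) proportional to CYP1A2 activity; compounds in DMSO preincubated 10 min with enzyme and proluciferin substrate, then NADPH regeneration solution, 1 h, room temperature.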

[14] = qHTS assay to identify small molecule antagonists of the thyroid receptor (TR) signaling pathway - cell viability counter screen (AID 743064); conditions: GH3.TRE-Luc viability, CellTiter-Fluor, 24 h; activity change, negative = cytotoxic: at 70.3 µM (top of the series) unless noted; further: potency means the concentration at half of the fitted maximal effect; nearly all actives have a fitted effect of over 50% in size
Method in brief: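 GH3.TRE-Luc cells, 4 h pre-plating; cpd + T3 1 nM final; 37 °C 23.5 h; CellTiter-Fluor 30 min; fluorescence read.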

[15] = qHTS assay to identify small molecule agonists of the RXR signaling pathway - cell viability counter screen (AID 1159529); further: nearly all actives have a fitted effect of over 50% in size; further: potency means the concentration at half of the fitted maximal effect
Method in brief: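 Luminescence from CellTiter-Glo (30 min, RT) measured viability in the same wells as the beta-lactamase reporter readout. Cells: GeneBLAzer RXR-alpha HEK 293T, 2% charcoal-stripped FBS. Compound exposure 16 hr, 37 C.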

[16] = target: Cytochrome P450 2D6 (Homo sapiens) (UniProt P10635); test: Cytochrome P450 Family 2 Subfamily D Member 6 (CYP2D6) small molecule antagonists: luciferase reporter qHTS assay (AID 1671196); further: on the % scale 0 is the no-effect control and ±100 the full control effect; nearly all actives have a fitted effect of over 50% in size
UniProt P10635, sequence (P10635 whole entry, looked up): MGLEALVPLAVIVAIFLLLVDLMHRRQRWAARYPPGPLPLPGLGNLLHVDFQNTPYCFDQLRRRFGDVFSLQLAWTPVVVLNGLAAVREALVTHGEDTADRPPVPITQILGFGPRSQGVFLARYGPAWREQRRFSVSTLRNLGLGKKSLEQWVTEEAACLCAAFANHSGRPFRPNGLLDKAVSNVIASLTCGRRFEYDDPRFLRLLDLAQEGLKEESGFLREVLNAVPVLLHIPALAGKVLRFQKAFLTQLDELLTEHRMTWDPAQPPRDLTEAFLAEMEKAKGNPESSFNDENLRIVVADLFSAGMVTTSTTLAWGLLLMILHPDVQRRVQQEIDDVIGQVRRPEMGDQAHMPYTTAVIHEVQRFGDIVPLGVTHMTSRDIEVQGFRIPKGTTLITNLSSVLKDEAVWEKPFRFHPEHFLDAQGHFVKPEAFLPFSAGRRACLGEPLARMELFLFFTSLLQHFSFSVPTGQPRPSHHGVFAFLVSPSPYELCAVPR
Method in brief: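 Chemicals tested for interference with CYP2D6 activity; proluciferin substrate, NADPH regeneration, 1 h at room temperature, luminescent detection.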

[17] = target: Glucocorticoid receptor (Homo sapiens) (UniProt P04150); test: qHTS assay to identify small molecule antagonists of the glucocorticoid receptor (GR) signaling pathway (AID 720692; active means well fitted inhibition curve with a large enough effect in the signal ratio in the repeat runs, not every such curve was filed as active; inconclusive means weak or mixed curves, or effect the other way; inactive means no such curve, though single readings can be large or run the other way; the % refers to the signal ratio; further: on the % scale 0 is the no-effect control and ±100 the full control effect); conditions: GR-bla HeLa, beta-lactamase FRET ratio, dexamethasone-stimulated, 18 h; activity change, negative = inhibition: at 58.5 µM (top of the series) unless noted
Method in brief: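 Tox21 10K library screened in concentration-response for blockade of dexamethasone (5 nM final)-induced GRE-bla reporter activity in HeLa cells; 18 h treatment, fluorescence read.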

[18] = qHTS assay for identifying genotoxic compounds that show differential cytotoxicity against isogenic chicken DT40 cell lines with known DNA damage response pathways - Rev3 mutant cell line (AID 743014); conditions: chicken DT40 Rev3-/- viability, CellTiter-Glo, 40 h; activity, negative = cytotoxicity: at 68.4 µM (top of the series); further: nearly all actives have a fitted effect of over 55% in size; further: potency means the concentration at half of the fitted maximal effect
[19] = target: Cytochrome P450 2C9 (Homo sapiens) (UniProt P11712); test: Cytochrome P450 Family 2 Subfamily C Member 9 (CYP2C9) small molecule antagonists: luciferase reporter qHTS assay (AID 1671198)
UniProt P11712, sequence (P11712 whole entry, looked up): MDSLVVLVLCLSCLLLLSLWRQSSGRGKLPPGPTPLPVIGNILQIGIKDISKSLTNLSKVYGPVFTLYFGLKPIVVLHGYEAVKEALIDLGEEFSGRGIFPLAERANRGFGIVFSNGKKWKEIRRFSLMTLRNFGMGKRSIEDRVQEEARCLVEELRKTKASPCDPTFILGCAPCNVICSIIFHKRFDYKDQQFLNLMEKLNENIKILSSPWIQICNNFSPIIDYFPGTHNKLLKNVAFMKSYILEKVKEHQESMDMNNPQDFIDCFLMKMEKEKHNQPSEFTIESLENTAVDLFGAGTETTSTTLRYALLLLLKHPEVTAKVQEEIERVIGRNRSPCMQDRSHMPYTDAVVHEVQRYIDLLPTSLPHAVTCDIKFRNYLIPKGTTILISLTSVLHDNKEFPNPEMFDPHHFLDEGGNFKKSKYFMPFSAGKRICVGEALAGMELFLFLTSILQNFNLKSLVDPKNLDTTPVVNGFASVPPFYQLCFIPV
Method in brief: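 CYP2C9 activity was measured with a P450-Glo proluciferin substrate. Enzyme–substrate mix was held with compound for 10 min at room temperature, then NADPH regeneration solution was added for 1 h at 37C. Luciferin product was read as luminescence.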

[20] = ratio activity, negative = inhibition: at 62.6 µM (top of the series) unless noted
[21] = activation: at 73.3 µM (top of the series) unless noted
[22] = activation: at 76.8 µM (top of the series) unless noted
Tags describe the fitted curve by direction and shape or compound fluorescence and quenching.

CC1(C)C(=O)NC(=O)NC1=O
Potency [1]: inactive | Potency [2]: inconclusive: 61.6 µM [rising, single point] | ratio activity, negative = inhibition [3, 20]: inconclusive: 11.1% | activation [4, 21]: inconclusive: -5.79% | activity change, negative = inhibition [5]: inconclusive: 10.3% | activation [6, 22]: inconclusive: -8.47% | Potency [7]: inconclusive: 77 µM [rising, partial curve, poor fit] | Potency [8]: inconclusive: 30.6 µM [cytotoxic, full curve] | Potency [9]: inconclusive: 89.4 µM [inhibitor, single point]

O=c1[nH]c(=O)n(Cl)c(=O)n1Cl
Potency [10]: inactive and inconclusive: 440 nM [activator, single point] | Potency [1]: inactive | ratio activity, negative = inhibition ([3]; at 62.6 µM (top of the series)): inactive: 2.25% and inconclusive: -3.24% | ratio activity, negative = inhibition ([3]; at 81.1 µM (top of the series)): inconclusive: -22.3% | Potency [11]: inconclusive: 4.36 µM [rising, full curve, poor fit] | activation [6, 22]: inconclusive: -9.42% and inconclusive: 4.55% | activation ([6]; at 76.8 µM (top of the series)): inactive: 7.94% | Potency [12]: inactive | Potency [9]: inconclusive: 81.1 µM [inhibitor, single point] | Potency [13]: inconclusive: 63.3 µM [inhibitor, partial curve, poor fit] and inconclusive: 63.3 µM [inhibitor, partial curve]

O=C(O)C(F)(F)C(F)(F)C(F)(F)C(F)(F)C(F)(F)C(F)(F)C(F)(F)C(F)(F)F
Potency [10]: inconclusive: 61.1 µM [fluorescent, partial curve] | Potency [1]: inconclusive: 4.86 µM [rising, full curve, poor fit] | Potency [14]: inconclusive: 68.6 µM [cytotoxic, single point] | Potency [3, 20]: inconclusive: 19.5 µM [inhibitor, partial curve] | Potency [4, 21]: active: 6.86 µM | Potency [11]: inconclusive: 27.5 µM [cytotoxic, partial curve, poor fit] | Potency [5]: inactive | Potency [6, 22]: active: 21.9 µM | Potency [15]: inconclusive: 6.16 µM [cytotoxic] | activity change, negative = inhibition [7]: inconclusive: 6.81% | Potency [8]: inconclusive: 7.7 µM [cytotoxic, full curve] | Potency [16]: inactive

CC(C)N(Cc1ccccc1)C(=O)C(C)(C)C
Potency [10]: inconclusive: 61.1 µM [activator, partial curve] | Potency [5]: inactive | Potency [6, 22]: inactive | Potency [13]: inconclusive: 39.9 µM [inhibitor, partial curve]

CCCN1CCC[C@@H]2Cc3[nH]ncc3C[C@H]21
ratio activity, negative = MMP loss [10]: inconclusive: -5.66% | Potency [17]: inactive | ratio activity, negative = inhibition [3, 20]: inconclusive: 11.6% | Potency [4, 21]: inactive | Potency [11]: inactive | Potency [6, 22]: inactive | Potency [15]: inactive | Potency [9]: inactive

O=c1[nH]c(Cl)c(Cl)cc1Cl
Potency [18]: inactive | Potency [3, 20]: inconclusive: 24.5 µM [partial curve] | Potency [4, 21]: inconclusive: 19.3 µM [rising, partial curve, poor fit] | Potency [5]: inactive | Potency [6, 22]: inconclusive: 43.6 µM [rising, partial curve, poor fit] | Potency [15]: inconclusive: 61.6 µM [cytotoxic, single point] | Potency [13]: inconclusive: 35.6 µM [inhibitor, partial curve]

C=CCc1ccccc1O
ratio activity, negative = MMP loss [10]: inconclusive: -36.7% | activation [4, 21]: inconclusive: -0.149% | Potency [6, 22]: inactive | Potency [8]: inactive | Potency [16]: inactive | Potency [19]: inconclusive: 35.6 µM [inhibitor]

C1CCC(C2CCCCC2)CC1
Potency [10]: inconclusive: 30.6 µM [inhibitor] | Potency [1]: inconclusive: 68.6 µM [cytotoxic, single point] | Potency [3, 20]: inconclusive: 54.9 µM [inhibitor, partial curve, poor fit] | activation [4, 21]: inconclusive: 6.67% | Potency [11]: inconclusive: 24.5 µM [cytotoxic, partial curve] | Potency [5]: inactive | Potency [6, 22]: active: 38.9 µM | Potency [15]: inconclusive: 34.7 µM [cytotoxic, partial curve, poor fit] | Potency [12]: inactive | Potency [7]: inconclusive: 61.1 µM [rising, single point] | Potency [8]: active: 8.63 µM | Potency [13]: inconclusive: 35.6 µM [inhibitor, partial curve]

CCNc1nc(Cl)nc(NC(C)(C)C#N)n1
Potency [10]: inactive | Potency [14]: inconclusive: 4.85 µM [rising, full curve, poor fit] | Potency [2]: inactive | activation [4, 21]: inconclusive: -14.8% | Potency [6, 22]: inconclusive: 27.5 µM [activator, partial curve] | activation [6, 22]: inconclusive: 18.5% | Potency [12]: active: 685 nM and inconclusive: 273 nM [inhibitor, full curve, poor fit] | Potency [8]: inconclusive: 1.37 µM [cytotoxic, single point] | Potency [9]: inconclusive: 79.6 µM [inhibitor, single point] | Potency [13]: inconclusive: 39.9 µM [inhibitor, partial curve]

c1ccc2c(c1)Oc1ccccc1O2
Potency [10]: inactive | Potency [18]: inconclusive: 27 µM [cytotoxic, partial curve, poor fit] | Potency [14]: inconclusive: 27 µM [rising, single point] | Potency [2]: inconclusive: 7.76 µM [rising, partial curve, poor fit] | activation [4, 21]: inconclusive: 1.67% | activation ([4]; at 73.3 µM (top of the series)): inactive: -0.655% | Potency [5]: inconclusive: 15.5 µM [activator, partial curve] | activity change, negative = inhibition [5]: inconclusive: -8.81% | Potency [6, 22]: inconclusive: 60.9 µM [activator] | Potency [9]: inconclusive: 39.9 µM [inhibitor, partial curve, poor fit] | Potency [13]: inconclusive: 39.5 µM [inhibitor, partial curve] and inconclusive: 39.9 µM [inhibitor, partial curve]
